# The supplement of paper PMC11417369
# The list shows a part of the results.
# System: PfHDP1 homeodomain (GST-tagged)
# Assay: gcPBM binding intensity (ln(normalized median fluorescence intensity)); higher = stronger DNA binding
# Summary of the method: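 The highest Masliner-normalised natural-log median intensity across replicate spots of either probe orientation is reported as binding intensity. GST-tagged P. falciparum DNA-binding domains expressed in E. coli were applied for 1 h to an Agilent 4 × 180k array of primer-extended double-stranded 36-bp intergenic genomic probes plus negative controls, and bound protein was detected with Alexa488 anti-GST antibody and scanned at 488 nm.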
row,Sequence,gcPBM binding intensity (ln)
1,ATCAAATTATAATCATGTACAAATAAAAAAAAAAAA [XGTACX_site313],6.3
2,AGAAAAAAAAAAAAAAAACACACGGTACATCCAAAG [CACACA_site124],6.15
3,AAATATCTACAAATATGTACATATTTTTTTTGGCTT [XGTACX_site6301],6.49
4,TATATATATATATATGCACACATTTATACAATTTTA [CACACA_site2986],10.2
5,ATCATATCCACCAAATGAATAATATAAAATAATATA [XGTACX_negctrl_site193],6.49
6,AAATAACATAATAAGGGTACATTAATTTCGATAATG [XGTACX_site835],6.19
7,TATACTTCTTATTAAATGAGTAGTATATATTATATA [TGCATGCA_negctrl_site299],6.04
8,CTATTTCATAAACACACACACACAAACAAACATATA [CACACA_site8234],7.16
9,CTAAAATACGAACACACACACACATATAAATAAATA [CACACA_site7872],6.83
10,AAAGATTGCGATGGTTGTACTTTTCTATATTTTTTT [XGTACX_site3492],6.54
11,TTTTTTTCTTTTTGAGGTACGCATTATTTTATTTGT [XGTACX_site6996],5.99
12,ATAATTTGATGGTTAACACACATATAGATTATAGAT [CACACA_site7200],6.41
13,ACAAAGTTTATAGAACGTACATACTTACACATATTT [XGTACX_site556],6.52
14,AAACAATTACACATATGTATGTATATATATATATAT [TGCATGCA_negctrl_site536],9.16
15,AAAAAAATGAAACACACACACACATATATATATATA [CACACA_site1043],9.32
16,TGTTATATTTCAAATTGTACTAATCTAATTAATAAA [XGTACX_site604],6.07
17,TTATTATATATATCTCGTACGTGTATACGCCTACCA [XGTACX_site8375],6.95
18,AAGTAGTGTTAATACTGTACTTATATTTTTTATTAT [XGTACX_site8264],5.96
19,TTGATATTTTTTTTATGTACACATGTTCATATTTTT [XGTACX_site8095],6.65

row,Sequence,gcPBM binding intensity (ln)
1,ATTTAAAAAAGAAAGGTGCATTTCAATAATGTAAAA [GTGCAC_site9585],8.13
2,TCATCTTTTATATGTTGTACGTATTTTCATTTATAT [XGTACX_site4855],6.83
3,TCACATATTATCTTTACACACTATAAATAAGTTTTA [CACACA_site7335],6.71
4,AAATTAAAAAAGAATATACACACCAAAACTGTTTGT [CACACA_site958],6.26
5,TAAAAAAAGGAAAACATACAATTCTATTTTTCAATA [CACACA_negctrl_site474],6.05
6,TAATTTTAAATATCTTCACACATTATATTTTTATAT [CACACA_site5411],6.29
7,ACCATACATACATACACACACACACGCATATTTATA [CACACA_site7386],7.61
8,TATATAAATAGATACACACATACATACATACATACA [CACACA_site260],7.37
9,TATAATAATACTTATTGTACGATTAGCTTAATTCGT [XGTACX_site15],6.2
10,ATGGAATTTTTAGAATATGGATAATGTTACTTAAGT [CACACA_negctrl_site494],6.05
11,TATATCGTTAATTATACACACATAAAATTAAACTTT [CACACA_site1274],6.84
12,GTTATATATATATATATATATATATATATTTTTTTT [GTGCAC_negctrl_site597],7.26
13,AAAAACCATGGGCACACACACATAATATATAATATA [CACACA_site1425],6.83
14,AAGTACAAATTTAATAAAAATGAAACAAATATGTAT [TGCATGCA_negctrl_site94],6.17
15,AAGGTGGAAACAATTACACACACACTAATAAAAAAA [CACACA_site9051],6.85
16,AAGGGTTATTTGATATGTACTTATATATATATATAA [XGTACX_site1659],6.57
17,TTTTTTAAAAGAAAATAAAAAATAAGCATAATATGA [CACACA_negctrl_site1574],6.53
18,TATTAATTAAAAAAATGTACATAATTATAAATTTTT [XGTACX_site7994],6.28
19,TACGGTTGTTTATTTTGTACGTAAAAAATATATTAT [XGTACX_site8393],6.72

row,Sequence,gcPBM binding intensity (ln)
1,TAATATACATATATATGTACATATATATATATATAT [XGTACX_site2684],9.3
2,TTCCAAAAAATTATTACACACATATGAGCACATATA [CACACA_site4543],9.16
3,AAGAGAAATATATATTGTACAATAATTTTATTTGGT [XGTACX_site7642],6.21
4,ATATCCATAATAAAAACATGCAACAGAAAAAAAAAA [TGCATGCA_site497],6.81
5,TATATATTAATATTTACACACATGCGCACCCATAAA [CACACA_site2410],7.51
6,AACAATTATTTGTCGACACACGTATATGTTATTTAG [CACACA_site5046],6.74
7,ACCGTGGGAGGACACACACACACACCCACATATATA [CACACA_site4339],6.38
8,ATTTTTGTTATTACATGTACCCATAATTATTATTAA [XGTACX_site3558],7.28
9,TATTTATATTCCTTTACACACTCCATCTTATATCCA [CACACA_site3604],7.1
10,ACAAAAAAATGAAAAGAAAAAGATATACCCCAATAT [CACACA_negctrl_site509],7.26
11,AATTTAAATATTTGTTGTACGTATTTATATATTCTT [XGTACX_site3623],6.53
12,AATATATAAACACGTACACACACATATATGTATATA [CACACA_site9168],6.97
13,ATAATATATAAACACACACACATATATAAATACATT [CACACA_site4466],6.71
14,CATGCCGTTAAATTATGTACTTATTATTTTAATATG [XGTACX_site4209],6.32
15,TATATAATTAAAATAACACACATATATAAAAATATA [CACACA_site2990],6.43
16,ATATTATAGTATATAACACACATTTTTCATAACACT [CACACA_site6331],6.34
17,TGGCAAAATAGGCACACACACATATACATATATATT [CACACA_site1059],6.77
18,GTATATATATTTCTTTAATAATTAAATTATAAATAT [CACACA_negctrl_site640],6.73
